# The campaign covered roughly 310,000 compounds. About 14,000 (4.5%) showed an effect of 50% or more. Effects have a minus sign here. This is one part of the list.
# Molecular target: human ether-à-go-go-related gene (hERG) potassium channel (human, UniProt Q12809)
# Experiment: primary screen, population patch clamp on CHO cells stably expressing hERG
# 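Also: peak tail current of the secondary pulse compared with the same well before compound.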
# Sequence of human ether-à-go-go-related gene (hERG) potassium channel (Q12809 whole entry, looked up): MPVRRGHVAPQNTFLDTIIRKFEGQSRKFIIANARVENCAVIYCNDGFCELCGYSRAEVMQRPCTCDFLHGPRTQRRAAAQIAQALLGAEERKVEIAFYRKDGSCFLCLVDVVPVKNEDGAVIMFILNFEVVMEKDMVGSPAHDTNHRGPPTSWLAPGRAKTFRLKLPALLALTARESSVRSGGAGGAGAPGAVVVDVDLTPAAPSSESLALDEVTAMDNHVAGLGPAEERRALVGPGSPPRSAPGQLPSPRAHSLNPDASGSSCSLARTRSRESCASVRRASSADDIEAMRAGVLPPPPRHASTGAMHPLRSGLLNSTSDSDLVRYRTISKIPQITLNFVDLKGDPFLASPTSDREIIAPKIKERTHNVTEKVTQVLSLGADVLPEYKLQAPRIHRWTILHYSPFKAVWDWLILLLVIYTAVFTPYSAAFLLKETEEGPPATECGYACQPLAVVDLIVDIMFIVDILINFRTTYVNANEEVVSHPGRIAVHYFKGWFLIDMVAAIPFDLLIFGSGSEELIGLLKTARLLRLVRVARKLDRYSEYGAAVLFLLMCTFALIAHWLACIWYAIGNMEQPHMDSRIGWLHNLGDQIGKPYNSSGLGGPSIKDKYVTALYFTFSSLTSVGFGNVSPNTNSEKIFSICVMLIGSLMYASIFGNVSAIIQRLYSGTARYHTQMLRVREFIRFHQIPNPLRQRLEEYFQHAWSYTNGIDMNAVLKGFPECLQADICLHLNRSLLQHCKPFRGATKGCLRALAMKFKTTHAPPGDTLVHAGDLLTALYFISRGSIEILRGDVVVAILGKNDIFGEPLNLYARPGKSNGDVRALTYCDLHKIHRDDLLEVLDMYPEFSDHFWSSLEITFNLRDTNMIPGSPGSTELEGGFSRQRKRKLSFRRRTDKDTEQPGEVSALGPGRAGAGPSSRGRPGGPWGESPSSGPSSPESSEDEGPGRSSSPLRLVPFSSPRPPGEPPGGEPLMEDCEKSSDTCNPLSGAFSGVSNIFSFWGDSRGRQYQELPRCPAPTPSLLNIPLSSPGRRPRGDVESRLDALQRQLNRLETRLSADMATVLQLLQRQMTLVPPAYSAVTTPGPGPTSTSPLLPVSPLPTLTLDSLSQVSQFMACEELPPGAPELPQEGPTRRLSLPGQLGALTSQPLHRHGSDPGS
row,SMILES,"hERG current change (%, negative = inhibition) at 10uM"
1,COc1ccc(CCC(=O)NNC(=O)Nc2cc(Cl)ccc2C)cc1,8.33%
2,Cc1ccc2ccccc2[n+]1CCCS(=O)(=O)[O-],11.7%
3,O=C(NC1CCCCC1)N(Cc1cc2cc3c(cc2[nH]c1=O)OCCO3)CC1CCCO1 (centres unmarked),-6.1%
4,Cc1cc([N+](=O)[O-])ccc1-c1ccc(/C=N/NC(=O)Cc2ccccc2)o1,10.3%
5,CN1CCN(C(CNC(=O)C(=O)NC2CCCCC2)c2ccc(F)cc2)CC1 (centres unmarked),-23%
6,COc1ccc(/C=C2\SC(=S)N(C(C(=O)O)c3ccccc3)C2=O)c(OC)c1 (centres unmarked),15.8%
7,C/C(=C\c1ccccc1F)C1Nc2cccc3cccc(c23)N1,13.1%
8,CCCCc1nc2ccc(S(=O)(=O)O)cc2[nH]1,-0.324%
9,Cc1nnc(SCC2=C(C(=O)O)N3C(=O)C(NC(=O)c4cccc(F)c4F)C3SC2)s1 (centres unmarked),13.2%
10,Cc1cccc2cc(CNC3CCCC3)c(Cl)nc12,0.412%
11,CN1C2CCC1CC(=NO)C2,11%
12,COc1cc(/C=N/NC(=O)c2ccoc2C)ccc1OCCN1CCCCC1,-31.6%
13,N#CCc1nn(Cc2ccc(F)cc2)c(=O)c2ccccc12,-24.6%
14,CCc1cccc2c(C(=O)COC(=O)c3ccc([N+](=O)[O-])s3)c[nH]c12,-3.62%
15,NC(=O)COc1ccc(Cc2ncc(C(F)(F)F)cc2Cl)cc1,-2.34%
16,COc1cc(NC(=O)NCCN2CCN(c3ccc(Cl)cc3)CC2)ccc1C,-4.15%
17,C[C@H]1c2cccc(O)c2C(O)=C2C(=O)C3(O)C(O)=C(C(N)=O)C(=O)[C@@H](N(C)C)[C@@H]3[C@@H](O)[C@@H]21.Cl (some centres unmarked),25.1%
18,O=S(=O)(NCCC1=CCCCC1)c1cccc(S(=O)(=O)N2CCOCC2)c1,-11.9%
19,Cn1nnnc1-c1cc(Br)ccc1NC(=O)c1ccccc1,10.2%
20,COc1ccc(-n2nc3c(c2NC(=O)c2c(-c4ccccc4Cl)noc2C)CS(=O)(=O)C3)cc1,-23.8%
21,CC(C)=CCN1CCN(Cc2cc(F)ccc2-n2nc(C)cc2C)CC1CCO (centres unmarked),-25%
22,CSCC[C@@H](C(=O)NCCCCCCCCCCC(=O)N1CCNCC1)n1cc(CCO)nn1,13.4%
23,Cc1ccc(C)c2nc3sc(C(=O)O)cc3cc12,20.9%

row,SMILES,"hERG current change (%, negative = inhibition) at 10uM"
1,N#CCCn1cc(C(=O)Nc2cccc(C(=O)O)c2)c(-c2ccc(Cl)cc2)n1,14.5%
2,COc1cccc(/C=N/Nc2ncnc(Cl)c2N)c1O,4.83%
3,CCCCC(=O)NCCc1cc2ccc(OC)cc2[nH]c1=O,-1.37%
4,Cc1ccc(NC(=O)C2CC(O)CN2C(=O)Oc2ccccc2)c(C)c1 (centres unmarked),14.3%
5,Cc1ccc(-c2nnc(SCC(=O)N3CCN(c4ccccc4)CC3)o2)cc1,10.5%
6,CCOc1ncccc1C(=O)N1CCCSC1=Nc1ccccc1OC,9.21%
7,COc1ccc(C(CNC(=O)c2cc3c(s2)CCC(C)C3)N2CCOCC2)cc1 (centres unmarked),-54%
8,CCOc1ccc(CN(C)C(=O)c2cc(S(=O)(=O)N3CCCC3)ccc2C)cc1,-34.1%
9,Cl.O=C(c1ccc(F)cc1)C(CN1CCOCC1)c1ccccc1 (centres unmarked),-12.3%
10,CN(CC(=O)Nc1cccc(F)c1)C(=O)CC1CC2CCC1C2 (centres unmarked),-1.76%
11,Cc1ccc(-c2cc(-c3cccc(F)c3)n[nH]2)c(O)c1,4.9%
12,O=C(Nc1ccccc1)c1sc2cc(C(F)(F)F)cnc2c1-c1cccs1,-5.56%
13,O=C(/C=C/Nc1ccc(S(=O)(=O)Nc2cnc3ccccc3n2)cc1)c1ccccc1,-0.234%
14,Cn1cc(/C=C(\C(=O)O)C(C(=O)O)=C2CCCCC2)c2ccccc21,3.75%
15,C=C(C)CNC(=S)N/N=C/c1ccc([N+](=O)[O-])cc1,14.4%
16,COCCNC(=O)CN(C(=O)CCC(=O)Nc1ccccn1)c1ccccc1F,18.5%
17,Cc1cc(C)c(NC(=O)CNC(=O)CSc2nnc(N)s2)c(C)c1,16.7%
18,Cc1nn(Cc2ccc(F)cc2)c(C)c1NC(=O)c1cnn2cccnc12,0.0468%
19,CC(CC(=O)Nc1ccccc1C(F)(F)F)c1ccccc1 (centres unmarked),-11.5%
20,CC1CCCN(C(=O)c2ccncc2)C1 (centres unmarked),1.39%
21,CCCCOc1ccc(C(C)(O)CCN2CCOCC2)cc1 (centres unmarked),-2.97%
22,CC(C)(C(=O)c1ccccc1)/[N+]([O-])=C/c1ccc(Br)cc1,7.9%
23,COc1ccc(S(=O)(=O)NCC(=O)N(CC(=O)NCC2CCCO2)c2cc(C)ccc2C)cc1 (centres unmarked),2.96%

row,SMILES,"hERG current change (%, negative = inhibition) at 10uM"
1,CSc1ccccc1-c1nnc(-c2ccc(Cl)cc2Cl)o1,7.18%
2,Cn1cc(C(C[N+](=O)[O-])c2ccccc2)c2ccccc21 (centres unmarked),6.13%
3,C=CCNc1nc(Cl)ncc1F,-7.52%
4,Cc1c(C)n2c(SCC(=O)N3CC(C)OC(C)C3)nnc2[nH]c1=O (centres unmarked),9.45%
5,O=C1ON=C(c2ccccc2)/C1=C/c1ccc(O)cc1,12.3%
6,O=C(N/C(=C/c1ccc(Cl)cc1)C(=O)N1CCCC1)c1ccccc1,-8.81%
7,O=C(COC(=O)c1ccc2c(c1)C(=O)N(c1cccc3ncccc13)C2=O)c1ccc(Cl)cc1,13.5%
8,COc1ccc(C(NC=O)c2cc(OC)c(OC)cc2Br)cc1OC (centres unmarked),13.6%
9,CC1CCCCN1S(=O)(=O)c1ccc(C(=O)Nc2nnc(-c3ccccc3Cl)o2)cc1 (centres unmarked),-5.11%
10,COC(=O)c1ccc(COC(=O)c2ccc(CO)cc2)o1,20.5%
11,COCCN(C(=O)Nc1ccccc1OC)c1nc2ccccc2s1,19.9%
12,CCn1c(=O)c2c(nc3n2CCCN3c2cccc(C)c2)n(C)c1=O,-3.56%
13,Cc1ccccc1OCC(=O)NNC(=O)CN1C(=O)c2ccccc2C1=O,-9.07%
14,CCCCCCNC(=O)c1ccc(Br)o1,-3%
15,CC(C)CCNC(=O)C(=O)Nc1cc2c3c(c1)CC(=O)N3CCC2,-27%
16,CCCCC(CC)CNC(=O)c1ncn[nH]1 (centres unmarked),2.5%
17,Cl.NC(=O)c1c(NC(=O)c2c(F)cccc2F)sc2c1CCN(Cc1ccccc1)C2,-17.7%
18,O=c1c2ccccc2nc(Cc2ccccc2)n1-c1ccc(O)cc1,-23.9%
19,COC(=O)c1cn(NC(=O)Cc2cccc(C(F)(F)F)c2)c(=O)c2ccccc12,10.3%
20,CC(C)Cn1c(SCC(=O)NC2CCCc3ccccc32)nc(O)cc1=O (centres unmarked),17%
21,Cc1ccc(CN(C)CC(=O)Nc2cccc([N+](=O)[O-])c2)o1,-58.4%
22,CCC(C)C(=O)Nc1ccc(OC)cc1[N+](=O)[O-] (centres unmarked),17.3%
23,O=C(CN1C(=O)C2C3C=CC(C3)C2C1=O)OCC(=O)c1ccc(Br)cc1 (centres unmarked),-15.1%

row,SMILES,"hERG current change (%, negative = inhibition) at 10uM"
1,CCCCCCCCCCOC(=O)Cn1c(COc2ccccc2C)[n+](C)c2ccccc21.[Cl-],-72.5%
2,CC1CN(c2nc3ccccc3nc2C(C#N)C(=O)OC2CCCCC2)CC(C)O1 (centres unmarked),-3.01%
3,CCOC(=O)c1c(-c2ccc(F)cc2)csc1NC(=O)CCN1C(=O)c2ccccc2C1=O,16%
4,CC(C)NC(=O)CC(=O)N/N=C/c1c(F)cccc1Cl,-1.51%
5,Cn1cccc1C1NC(=O)c2c(sc3c2CCC(C(C)(C)C)C3)N1 (centres unmarked),9.24%
6,COC(=O)c1cc(C(=O)OC)cc(N2C(=O)CC(NNC(=O)c3ccc(C)cc3)C2=O)c1 (centres unmarked),-11.5%
7,Cc1nc2scc(-c3cccs3)c2c(=O)[nH]1,15.3%
8,O=C(CSc1n[nH]c(-c2cccnc2)n1)Nc1ccccc1,-0.953%
9,Cc1cc(C)nc(NC(=S)NC(=O)c2ccccc2F)n1,-28.1%
10,S=C1NCCc2ccc(Cl)cc2C1c1ccccc1 (centres unmarked),-38.4%
11,CCC(Oc1ccccc1)C(=O)Nc1ccc(S(=O)(=O)Nc2ncccn2)cc1 (centres unmarked),17.3%
12,O=C(CSc1nnc(NC(=O)c2ccco2)s1)Nc1ccc(F)cc1,24.9%
13,O=C(c1cccc(F)c1)N1CCCC(C(=O)N2CCN(c3ccccc3)CC2)C1 (centres unmarked),-3.27%
14,Cc1cnc(NC(=O)CCN2C(=O)C3CCCCC3C2=O)s1 (centres unmarked),24.3%
15,Cn1c(=NC(=O)c2cccc([N+](=O)[O-])c2)sc2ccccc21,-4.18%
16,C1CCNCC1.N#CC1=C(N)Oc2cc(O)ccc2C1c1ccc2c(c1)OCO2 (centres unmarked),2.47%
17,CCS(=O)(=O)Nc1ccc(C2=NN(C(=O)c3ccco3)C(c3cccc(F)c3)C2)cc1 (centres unmarked),-32.4%
18,O=C(CC(C(=O)N1CCc2ccccc21)n1ccnc1)NCC1CCCO1 (centres unmarked),8.9%
19,O=C(CSc1ccc([N+](=O)[O-])cc1)NCC1CCCCC1,-15%
20,O=C(NCCN1CCN(c2ccccc2Cl)CC1)Nc1ccccc1,-34.1%

# Source: paper PMC4336329 (PLoS ONE, 2015)
